For 167 variants, self-cleavage results are on record in the RNAGym collection of RNA variant scans (doi:10.1093/nar/gkz1192).

B1: CPEB3 Ribozyme (parent)
chain: UAACAGGGGGCCACAGCAGAAGCGUUCACGUCGCAGCCCCUGUCAGAUUCUGGUGAAUCUGCGAAUUCUGCUGUAUAUCUC

Read counts are not given, so values of variants with three or more changes are uncertain.

This data set covers variants of B1. Put plainly: self-cleavage, relative activity (ratio to wild type); higher = more cleavage; in vitro, sequencing. In a few lines: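 Barcoded CPEB3 ribozyme mutants, produced by rounds of error-prone PCR, self-cleaved while being transcribed with T7 RNA polymerase for 5 hours at 37°C and during a subsequent 15 min DNase I step before EDTA was added. Sequencing of template-switched cDNA on Illumina gave cleaved and total reads, and DNA sequencing assigned barcodes to variants. Each variant's relative activity is its cleaved/total read fraction divided by the unmutated ribozyme's fraction, averaged across three batches. A variant needed a minimum of 5 reads.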
For G9A U60A A64U, the self-cleavage turned out to be 0.05.
Then G9A A35U A45C U60C, with 0.11; and G10A A18U A57G, with 0.06.
As for G8U A15U A28C A45G U51C U72C, the self-cleavage was found to be 0.04.
Regarding G9U A35C G52A U72C, the self-cleavage was 0.15.
For G9C U54G A56G U60C U66C, the self-cleavage was 0.06.
Then G8U A21G C39A A75C U78C, with 0.11.
Consider G9A G55C U60C U67G, for which the self-cleavage stood at 0.06.
With G9U U48C A65G U74C, the self-cleavage was 0.12.
Take G10A A18G U25A U72A U76C U78A: the self-cleavage is 0.05.
Turning to G9C A13G A57U U69G A77U U78C, the self-cleavage was determined as 0.03.
G8U C40U U41A A47G U49A: the self-cleavage stood at 0.07.
For the variant G9A U25A U31A U80C, the self-cleavage amounted to 0.06.
Regarding G8U U26A G36A U48A C62U A64G, the self-cleavage came to 0.
For G8A U26A G53U, the self-cleavage was 0.06.
Regarding G9A A18G A28U U72C, the self-cleavage worked out at 0.16.
The result for G8U U54C U76A reads 0.35.
The result for G10A A15C U60C U66C U78C reads 0.1; that for G9U A15U G22U U26A A45G, 0.17; that for G10A A13G U72C, 0.5.
On to G8C U49C G52A U72A, for which the self-cleavage stood at 0.05.
Take G9A A20U A21G U26C G30C U80C: the self-cleavage was 0.05.
The result for G9A A15G U54C U60A reads 0.08; that for G8A U26C C37G A45G, 0.19.
On to G9A C29A G63A A64G, for which the self-cleavage is 0.05.
For the variant G9A U54C A56G U66C U78C U80C, the self-cleavage was found to be 0.04.
Turning to G9U U26C A28G A77G, the self-cleavage amounted to 0.05.
As for G9A U60A C79U, the self-cleavage turned out to be 0.23.
Then G9A U26A C39U U51A U54A, with 0.24; and G9U U51C A65U, with 0.15.
For G8A C29U A35U U43C A47G U60A, the self-cleavage was 0.04.
In the case of G9A U49A U72C, the self-cleavage stood at 0.07.
With G8U A13U A18U U41A U43C, the self-cleavage was 0.05.
On to G8A U25C U43A U78C, for which the self-cleavage worked out at 0.09.
G8A U26C A35U C38A U76C: the self-cleavage was found to be 0.08.
Then G8C U25A G52U A56U, with 0.05; and G9U U26C C59U C62A, with 0.09.
Then G9C A15G A64G, with 0.07; and G9U A20G U58C U69C, with 0.39; and G8U U31A A35G U51A U78A U80C, with 0.05.
As for G8C U25A U48C A56G U67C, the self-cleavage was 0.06.
For G8A G10A U25C U49C U60C U72C U80C, the self-cleavage worked out at 0.04.
Turning to G8U A21G U58C, the self-cleavage amounted to 0.06.
Regarding G8U A28G U41A A56U A57G U69C, the self-cleavage was found to be 0.09.
G9U U51A A65G: the self-cleavage was found to be 0.08.
In the case of G8U A28G A64G, the self-cleavage was 0.1.
Then G9A A18G U41A, with 0.17; and G8U A18U A28U C40U U41C, with 0.05.
As to G9U A56G A57U U58A U80C, the self-cleavage amounted to 0.14.
Turning to G9A U26C C34U A47U A56G A75G, the self-cleavage worked out at 0.05.
Regarding G10A A18G A35G A64U, the self-cleavage was determined as 0.21.
Regarding G9A G10C U25A U41A U43A A65G U72G, the self-cleavage was found to be 0.13.
With G10A A20G A28G A45G U72A U78A, the self-cleavage worked out at 0.15.
Then G8U A13G A18U C38A A45G, with 0.2.
Take G8U A28C A57G: the self-cleavage is 0.05.
In the case of G9U G22U A57G, the self-cleavage was 0.13.
Regarding G9A U26C U31C G63A U74C U76C, the self-cleavage was 0.06.
With G9U A15U A28G U66C, the self-cleavage worked out at 0.14.
For the variant G9C C11A G24U A35G A57G U67C U78A, the self-cleavage turned out to be 0.03.
For G9C A21G U60C U72C, the self-cleavage was determined as 0.47.
The result for G9A A45U U67G U78A reads 0.11.
Then G8U U26C A35G U74C U80C, with 0.08; and G10A A15G A18U U26C U31C U54C U67C, with 0.19; and G8U U49C U51A U78G, with 0.08.
For the variant G8A U54G A75G, the self-cleavage was 0.05.
G9U U43C A56G: the self-cleavage was determined as 0.17.
For the variant G8U A57U C62A U67C, the self-cleavage is 0.05.
The result for G8A U31C U66A U69A A77U reads 0.03; that for G9A A45G U48C U51C, 0.32.
Take G8A U51A U80C: the self-cleavage is 0.09.
Take G9A A28C U49C U51A: the self-cleavage was found to be 0.04.
The result for G9C A15U U41C U58C reads 0.05; that for G9A C11U A18G A65G U67C U72G, 0.06; that for G9A C32U A45G, 0.2.
Regarding G9A U31C U60A, the self-cleavage came to 0.11.
For the variant G8A G24C U26A A56G A57G U58C A75U, the self-cleavage amounted to 0.13.
For the variant G8A G33C G42C U43C U49C G52U, the self-cleavage was 0.31.
G9A A35G U41C A65U A77G: the self-cleavage came out at 0.14.
For G8A U54C U60G, the self-cleavage was 0.05.
Take G9A A45U U74C U80C: the self-cleavage was 0.07.
In the case of G8C U41C A75U, the self-cleavage is 0.09.
Then G10A A13U A20G A45U, with 0.46; and G9A A35G U76A A77G, with 0.76.
G8C G33A A57U: the self-cleavage was 0.18.
On to G8A U66C A75G, for which the self-cleavage was 0.04.
As for G9U C34U U49C A64U, the self-cleavage stood at 0.09.
Consider G8U A13G C17U A64G U69A, for which the self-cleavage was 0.11.
As to G9U A21G U51C U60A U80C, the self-cleavage came to 0.05.
As for G9U G10U U41A U54A A64U A65G U74C, the self-cleavage is 0.04.
On to G9A U41A U67A U74C A75G, for which the self-cleavage was determined as 0.03.
Take G9A A45G U58C G70A: the self-cleavage turned out to be 0.14.
With G9A A20G U25A C38A C62A U67C, the self-cleavage was determined as 0.04.
Turning to G9U U48C A56G U60C G70A, the self-cleavage stood at 0.04.
For the variant G9C A64G U66C U69A U80C, the self-cleavage is 0.08.
The result for G8U U25A U26C U51C U69C reads 0.13; that for G9U U31A U69C U72C, 0.1; that for G9A A18U U69C C71A U80C, 0.03.
Regarding G9A C12U C32U A56G, the self-cleavage is 0.07.
Turning to G9U A56U U76C, the self-cleavage was 0.2.
As to G8C A28G A56G U72G, the self-cleavage worked out at 0.04.
Take G9A U25C A35G A77G: the self-cleavage worked out at 0.09.
As to G8A G9A A47G A64U U72G, the self-cleavage is 0.1.
For the variant G8A G33A C38U U43C A56U A64G U76A, the self-cleavage was determined as 0.08.
In the case of G9A U60C U80C, the self-cleavage came to 0.19.
For G8U G19A A20G U41C U60C, the self-cleavage was found to be 0.11.
Then G8U U72A U78A, with 0.05; and G9U C14U A28G C34U U69A, with 0.04; and G9U A20G A28G G36C U54A A57G, with 0.13.
Consider G9A C39A U80A, for which the self-cleavage was found to be 0.14.
For the variant G9A U58C A75G, the self-cleavage turned out to be 0.14.
On to G9A A28G A64G U67A A75G, for which the self-cleavage was 0.03.
For G9A G22A U26C A77U, the self-cleavage was determined as 0.23.
Turning to G9U A13G A18G A28G U78C, the self-cleavage came out at 0.29.
Then G8U U43G A45U U60C, with 0.09; and G8U C12U A47G U51A, with 0.45.
For G8A U26A U41C U54C A77U, the self-cleavage was found to be 0.05.
As for G9A C39U U60C C71U, the self-cleavage was 0.15.
Take G9U U41A A47G A77G: the self-cleavage was found to be 0.11.
On to G9U U25C A35G, for which the self-cleavage turned out to be 0.07.
Then G9A A18G U41A U51C U54C U78C, with 0.06; and G10A A18U A21U U25A U26C A56G C68A, with 0.04.
Consider G9A C17G U41A U54A A65U U67A U80C, for which the self-cleavage was 0.08.
The result for G9U G22A C32A U43A A64G U66A reads 0.03; that for G8A G10A U58A U60A, 0.18.
In the case of G10A A15U U25C U49C U51A A77G, the self-cleavage stood at 0.03.
In the case of G8A U41C U67C, the self-cleavage came to 0.17.
Turning to G9A G19U C40A U41A A77G, the self-cleavage is 0.13.
The result for G9A A45G U49C U54A reads 0.43.
Turning to G9C G10C A35G A57G G70C, the self-cleavage was determined as 0.16.
Regarding G8C A18G A35U U78C, the self-cleavage came out at 0.05.
The result for G9U C40U A56G reads 0.26; that for G8A U31C U51C, 0.16.
G9A A20G U58C: the self-cleavage stood at 0.09.
The result for G8A U25A C39A A65G reads 0.04; that for G8A U41C U49C, 0.21.
Consider G8A C44U G52U A56G U74C U80C, for which the self-cleavage worked out at 0.05.
For G10A A15G A65G, the self-cleavage was 0.24.
For the variant G9U A13U A20G G46A, the self-cleavage was found to be 0.43.
Regarding G9A U31C A47G U48C A64G, the self-cleavage stood at 0.13.
Regarding G9A U31G U54A U74C, the self-cleavage was 0.07.
In the case of G9A C12U A57G U60A U78A, the self-cleavage was determined as 0.13.
For G8A G24A U31C A77G, the self-cleavage was 0.03.
In the case of G8A U49C U54C U67C A77G, the self-cleavage came out at 0.12.
Then G9U G52A A75G, with 0.12; and G8C C32U U58C U66C U76A, with 0.06.
In the case of G9A A35G U41C U58C U80C, the self-cleavage was determined as 0.2.
Consider G8A U41C A56C A64U U66C U80C, for which the self-cleavage is 0.07.
In the case of G8U A15U U41C A56G U66C U69C, the self-cleavage was 0.05.
Consider G9A U43C A45U A56G A57G U69A, for which the self-cleavage was determined as 0.06.
In the case of G9C C44U A77G, the self-cleavage amounted to 0.16.
The result for G9U U26A C29U A35U U41C U69C U80C reads 0.03.
Regarding G9A C29A U31C U51C A75G, the self-cleavage was determined as 0.07.
With G8A G10A A15G A20G A65G U76C, the self-cleavage worked out at 0.15.
For G9C U51C U60A A77G, the self-cleavage came to 0.09.
The result for G9A A28U U41C U51G U54C reads 0.14.
For the variant G9U U51C U69C U72G U80A, the self-cleavage was found to be 0.11.
On to G8U A28G G55A, for which the self-cleavage turned out to be 0.08.
On to G9A C38A A45U G70U U72A, for which the self-cleavage turned out to be 0.18.
The result for G8U A64U U76A reads 0.04; that for G9A C12U A13G C44A U72C, 0.1.
As to G9U A15G A28G, the self-cleavage was 0.1.
For the variant G8C G22U A28U, the self-cleavage was 0.07.
G9A U26C C59A U60C A75U: the self-cleavage came to 0.07.
For the variant G8U A21U U25C, the self-cleavage was found to be 0.04.
Consider G9U G24A U51C A57U U80A, for which the self-cleavage stood at 0.07.
In the case of G9U U41C U43C U76A U80C, the self-cleavage was determined as 0.05.
Then G8U A20U A35U A57G, with 0.12.
